Laboratory results published in PubChem BioAssay AID1468 (National Center for Advancing Translational Sciences (NCATS), 2008).
In all, about 280,000 compounds went through this assay and about 1,100 (0.39%) were called active. The inconclusive results got no clear call from the source; some entries with a clear call stand among them for comparison. The call rests on the fitted dose curve; in most records, active means well fitted inhibition curve with a large enough effect; inconclusive means small, poorly fitted or top-dose-only effect, or effect the other way; inactive means flat fitted curve, though single readings scatter. No potency is given beside an inconclusive call; the fits are too rough.

Molecular target: Microtubule-associated protein tau (Homo sapiens) (UniProt P10636)
Sequence of UniProt P10636 (P10636 whole entry, looked up): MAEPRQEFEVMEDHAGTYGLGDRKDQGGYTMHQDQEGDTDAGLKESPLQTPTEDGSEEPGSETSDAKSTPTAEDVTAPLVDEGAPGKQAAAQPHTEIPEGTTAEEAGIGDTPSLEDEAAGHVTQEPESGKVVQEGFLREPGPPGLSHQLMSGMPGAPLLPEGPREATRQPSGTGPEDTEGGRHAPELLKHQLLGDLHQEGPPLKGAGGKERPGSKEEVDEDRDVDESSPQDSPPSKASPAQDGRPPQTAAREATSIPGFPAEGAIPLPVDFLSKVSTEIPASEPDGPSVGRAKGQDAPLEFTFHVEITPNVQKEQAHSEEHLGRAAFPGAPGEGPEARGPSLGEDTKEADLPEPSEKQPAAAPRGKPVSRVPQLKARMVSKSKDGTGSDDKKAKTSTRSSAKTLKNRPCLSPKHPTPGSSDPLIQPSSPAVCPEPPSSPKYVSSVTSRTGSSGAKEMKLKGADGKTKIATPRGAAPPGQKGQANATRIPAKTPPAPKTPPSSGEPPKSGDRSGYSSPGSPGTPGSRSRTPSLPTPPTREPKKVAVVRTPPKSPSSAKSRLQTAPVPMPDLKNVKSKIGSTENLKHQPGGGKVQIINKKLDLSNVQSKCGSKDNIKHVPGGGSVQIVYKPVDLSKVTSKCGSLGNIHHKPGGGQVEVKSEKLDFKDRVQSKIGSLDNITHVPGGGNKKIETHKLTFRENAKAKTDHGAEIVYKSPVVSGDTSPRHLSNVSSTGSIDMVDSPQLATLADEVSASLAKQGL
Experiment: qHTS for Inhibitors of Tau Fibril Formation, Fluorescence Polarization; further: nearly all actives have a fitted effect of over 55% in size
Conditions: K18 P301L tau heparin fibrillization, Alexa594 FP, 6 h; series mostly up to 57.7 µM; activity, negative = inhibition: at the top concentration
Method in brief: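 Human K18 P301L fragment (15 uM unlabeled plus 0.24 uM Alexa 594-labeled) in 100 mM sodium acetate pH 7 with compound, aggregation induced by 20 uM heparin for 6 hr at 37 C. ThT (30 uM) added for 1 hr, then Alexa 594 FP read.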
On the % scale 0 is the no-effect control and ±100 the full control effect; potency means the concentration at half of the fitted maximal effect; tags describe the fitted curve by direction and shape.

Row | Compound | Potency | activity, negative = inhibition
1 | O=c1oc2ccccc2cc1-c1nc(-c2ccccc2)no1 | inconclusive [inhibitor, full curve, poor fit] | 
2 | CNc1ccccc1C(C)(C)c1cc(C)[nH]n1 | inconclusive [inhibitor, full curve, poor fit] | 
3 | CCC(=O)Nc1ccc(Br)c(Cl)c1 |  | inactive: -9.76%
4 | CC[n+]1c(/C=C2\Sc3ccccc3N2C)ccc2cccc(C)c21 | inconclusive [inhibitor, partial curve] | 
5 | O=C(c1cccs1)N1CCC(N2CCN(c3ccccc3)CC2)CC1 |  | inactive: 2.68%
6 | Cc1nc(N)sc1-c1csc(NCc2ccccc2)n1 | inconclusive [inhibitor, partial curve] | 
7 | N#CCCN1CCN(S(=O)(=O)c2ccc(S(=O)(=O)NC3CCCCC3)cc2)CC1 | inconclusive [inhibitor, single point] | 
8 | CCc1ccc(NC(=O)CSc2nc(C)c(C(=O)Nc3ccccc3)c(-c3ccc(OC)c(OC)c3)c2C#N)cc1 | inconclusive [inhibitor, single point] | 
9 | Cc1cc(C(=O)COC(=O)CC2Sc3ccccc3NC2=O)c(C)n1-c1ccccc1 (stereo not given) |  | inactive: 0.257%
10 | COc1cccc(NC(=S)Nc2ccc(O)cc2)c1 | inconclusive [inhibitor, partial curve] | 
11 | COc1ccc(Br)cc1Cn1nnc(C(=O)Nc2cccc(SC)c2)c1N | inconclusive [inhibitor, partial curve] | 
12 | O=C(CC(c1cccs1)N1Cc2ccccc2C1=O)Nc1ccc(F)cc1 (stereo not given) | inconclusive [inhibitor, single point] | 
13 | CC(C)(C)c1ccc(C2C(C#N)=C(N)Oc3n[nH]c(-c4cccnc4)c32)cc1 (stereo not given) | inconclusive [inhibitor, single point] | 
14 | COc1ccc(S(=O)(=O)NCc2nc(-c3ccccc3)no2)cc1 | inconclusive [inhibitor, single point] | 
15 | Oc1ccc(-c2nc3ccc(Cl)cn3c2Nc2ccc(Cl)cc2)cc1 | inconclusive [inhibitor, single point] | 
16 | COc1ccccc1NC(=O)Nc1nnc(CC(=O)Nc2ccccc2C)s1 | inconclusive [inhibitor, partial curve] | 
17 | O=C(CSc1nnc(-c2ccc3c(c2)OCO3)n1-c1ccccc1)c1ccccc1 |  | inactive: -3.13%
18 | C=C(C)CNC(=S)N/N=C/c1ccc(N2CCOCC2)cc1 |  | inactive: 7.13%
19 | O=C(CCCn1c(=S)[nH]c2ccsc2c1=O)Nc1ccc2c(c1)OCCO2 |  | inactive: -2.61%
20 | Cc1cc(C)cc(N(CC(=O)NCCc2ccc(Cl)cc2)S(=O)(=O)c2c(C)noc2C)c1 |  | inactive: 1.08%
21 | S=C(NCc1ccco1)NC1CCCc2ccccc21 (stereo not given) |  | inactive: -0.581%
22 | CCC1(C(=O)OC)NC(c2ccco2)C2C(=O)N(c3ccccc3)C(=O)C21 (stereo not given) |  | inactive: -9.95%
23 | COc1ccccc1CC(=O)NNS(=O)(=O)c1ccc([N+](=O)[O-])cc1 | inconclusive [inhibitor, single point] | 

Row | Compound | Potency | activity, negative = inhibition
24 | O=C1CCCc2c1nn(-c1ccccc1)[n+]2[O-] | inconclusive [inhibitor, partial curve, poor fit] | 
25 | O=C(Cc1ccc(Cl)cc1)Nc1ccc(SC(F)F)cc1 | inconclusive [inhibitor, single point] | 
26 | O=C(CCc1ccc(S(=O)(=O)NC2CCCCC2)cc1)NCc1cccnc1 |  | inactive: -1.02% [at 2.34 µM]
27 | CN(Cc1ccco1)c1ncnc2ccc(-c3cccc(C#N)c3)cc12 |  | inactive: -14.5%
28 | O=c1cc(N=Nc2ccc(Cl)cc2)[nH]c(=O)[nH]1 | inconclusive [inhibitor, partial curve] | 
29 | Cc1ccccc1OCC(=O)Nc1ccc(S(=O)(=O)N(Cc2ccccc2)c2ccccc2)cc1 | inconclusive [inhibitor, partial curve] | 
30 | COc1ccc(OC)c(NC(=O)c2ccc(CN(c3cc(Cl)ccc3C)S(=O)(=O)c3ccccc3)cc2)c1 |  | inactive: -13.4%
31 | Cn1c(-c2cnn(-c3ccccc3)c2-n2cccc2)n[nH]c1=S |  | inactive: -9.19%
32 | Cc1ccc(OCCSc2nnc(-c3cccs3)o2)cc1 | inconclusive [inhibitor, partial curve, poor fit] | 
33 | CC(C)CN1C(=O)/C(=C(/C#N)C(=O)NC2CCCCC2)c2ccccc21 | inconclusive [inhibitor, partial curve] | 
34 | Cc1ccc(CNS(=O)(=O)c2cc3[nH]c(=O)c(=O)[nH]c3cc2C)cc1 |  | inactive: -2.28%
35 | Cc1c(C(=O)NCc2cccc(Cl)c2)sc2nc3n(c(=O)c12)CCC3 | inconclusive [activator, partial curve] | 
36 | O=C(COC(=O)c1cc(-c2ccccc2)nc2ccccc12)c1ccc(Br)cc1 | inconclusive [inhibitor, single point] | 
37 | Cc1ccc(C(=O)Nc2ccc3nc(SCC(=O)N4CCCc5ccccc54)sc3c2)cc1 | inconclusive [inhibitor, partial curve] | 
38 | CSc1nc2sc3c(c2c(=O)n1Cc1ccccc1)CCC(C(C)(C)C)C3 (stereo not given) |  | inactive: -0.458%
39 | NC(=O)c1nc(-c2ccc(F)c(F)c2)nc2c1[nH]c(=O)n2-c1cccc(Cl)c1 | inconclusive [inhibitor, partial curve] | 
40 | COc1cccc(-c2cn3nc4c(nc3n2)CCCC4)c1 | inconclusive [inhibitor, partial curve] | 
41 | O=C1/C(=C/N(C(=O)c2ccco2)c2ccc(Cl)cc2)Sc2ccccc21 |  | inactive: 15.2%
42 | O=C(NCCOc1nc(N2CCCCC2)nc(N2CCOCC2)n1)Nc1ccccc1 |  | inactive: 1.66%
43 | CN(C)S(=O)(=O)c1cccc(NC(=O)COC(=O)/C=C/c2ccc([N+](=O)[O-])cc2)c1 |  | inactive: 9.56%
44 | Cc1csc(NC(=O)c2cc(-c3ccccc3)nc3ccccc23)n1 | inconclusive [inhibitor, partial curve, poor fit] | 
45 | CCOc1ccc(N(C)S(=O)(=O)c2ccc3[nH]cc(C(=O)NCCOC)c(=O)c3c2)cc1 | inconclusive [inhibitor, partial curve] | 
